Where “and” joins values, the source holds several entries; their conditions need not be identical. Identical values can stand only once. Hit rate of the full screen: of about 48,000 compounds, about 1,200 (2.5%) were called active. Not shown: some 2% with an inconclusive outcome.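 How the source made its calls: active means activation of at least 60% and not above a set upper limit (about 1 call in 100 departs from these limits); inconclusive means activation of 40% to 60%, or above that upper limit; inactive means activation under 40%.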 Some of the results follow.
molecular target: Probable G-protein coupled receptor 32 (Homo sapiens) (UniProt O75388); assay: qHTS for Agonists of Human Resolvin D1 Receptor DRV1; conditions: CHO-K1 GPR32 beta-arrestin PathHunter luminescence, 90 min; at 76.9 µM; active compounds read high; zero percent set by DMSO-only wells; further: 0% is about no effect
UniProt O75388, sequence (O75388 whole entry, looked up): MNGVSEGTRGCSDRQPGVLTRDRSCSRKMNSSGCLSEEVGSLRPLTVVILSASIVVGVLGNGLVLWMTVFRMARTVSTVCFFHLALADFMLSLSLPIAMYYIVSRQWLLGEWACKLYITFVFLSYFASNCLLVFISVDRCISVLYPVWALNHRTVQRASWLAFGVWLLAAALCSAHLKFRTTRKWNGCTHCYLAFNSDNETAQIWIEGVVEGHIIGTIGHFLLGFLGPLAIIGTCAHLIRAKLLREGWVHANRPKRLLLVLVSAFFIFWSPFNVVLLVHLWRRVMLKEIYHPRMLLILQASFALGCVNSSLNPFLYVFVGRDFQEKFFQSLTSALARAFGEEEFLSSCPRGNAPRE
In short: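 Cells are plated overnight, treated with compounds in DMSO for 90 minutes at 37 °C, and developed with PathHunter detection reagent for 1 hour before luminescence is read; signal reflects beta-arrestin binding to GPR32 in engineered CHO-K1 cells.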

activation, active:
O=C(Cn1c(=O)oc2cc(S(=O)(=O)NC3CCCC3)ccc21)Nc1ccc(F)c(F)c1 91.3%
Cc1ccc(Cl)cc1N1CCN(S(=O)(=O)c2cc3[nH]c(=O)c(=O)[nH]c3cc2C)CC1 97%
O=C1CC(c2ccc(Cl)cc2)Sc2nc(-c3ccc(F)cc3)nn21 (configuration not stated) 119%

activation, inactive:
COc1ccc(NC(=O)c2c(NC(=O)Cc3ccccc3)sc3c2CCCC3)cc1 4.3%
O=C(CSc1ccc2nc(-c3ccccc3)cn2n1)Nc1cccc(F)c1 -11.2%
C=CCNc1nc(NCC=C)nc(N2CCN(C(c3ccc(F)cc3)c3ccc(F)cc3)CC2)n1 -21%
COc1ccc(NC(=O)Cn2c(=O)n(Cc3ccc(C(=O)NCc4ccccc4Cl)cc3)c(=O)c3ccccc32)cc1 -4.2%
COc1ccc(Cn2nnc3c(=O)[nH]c(C4CCN(C(=O)c5ccc(C)cc5)CC4)nc32)cc1OC -9.52%
CCN(CC)CCCNC(=O)CN1N=C(c2ccccc2)CCC1=O -1.98%
Cc1cc(F)ccc1NC(=O)Cn1c(=O)ccc2cc(S(=O)(=O)N3CCC(C)CC3)ccc21 -12.2%
Cc1nn(C)c2c1c(C(F)(F)F)cc(=O)n2C(C)C(=O)NCc1ccccc1Cl (configuration not stated) 1.89%
Cc1nn(CC(=O)N2CCN(c3cccc(C(F)(F)F)c3)CC2)c(=O)c2cccn12 0.302%
Cc1ccc(NC(=O)Cn2nnc(C(=O)NCc3cccs3)c2N)cc1Cl -9.74%
COC(=O)c1sccc1S(=O)(=O)N(CC(=O)NCc1ccc(F)cc1)c1ccc(Cl)cc1 -11.1%
COc1ccc(CNC(=O)c2ccc(CNS(=O)(=O)c3ccc(F)cc3)cc2)cc1 -4.01%
Cc1oc(-c2cccc(Cl)c2)nc1Cn1c(SCc2ccccc2F)nc2ccncc21 1.75%
Nc1c(CC(=O)O)cccc1C(=O)c1ccc(Br)cc1 -30.2%
COc1ccccc1NC(=O)CSC1=Nc2ccccc2C2=NC(CC(=O)NCc3cccs3)C(=O)N12 (configuration not stated) -18.5%
COc1ccc(CCNC(=O)c2ccc3c(c2)N(Cc2ccccc2C)C(=O)c2ccccc2S3)cc1OC -29.6%
Cc1ccccc1NC(=O)CSc1nnc(-c2cccs2)o1 -7.2%
Cc1cccc(N2CCN(C3(c4ccccc4)C(=O)c4ccccc4C3=O)CC2C)c1 (configuration not stated) 0.312%
Cc1ccc(-c2nc3cc(Cl)ccc3o2)cc1NC(=O)COc1ccc(F)cc1 -3.66%
COc1cccc(C2CC(=O)Nc3c2c(=O)nc2c(C)cccn32)c1OC (configuration not stated) 0.842%
Cc1ccc(C(c2sc3nc(-c4ccco4)nn3c2O)N2CCN(Cc3ccccc3)CC2)cc1 (configuration not stated) -9.99%
COc1ccccc1CNC(=O)c1cnn2c(C)c(Cc3ccc(F)cc3)c(C)nc12 -19%
CCOC(=O)c1ccc(NC(=O)CN2C(=O)COc3ccc(Cl)cc32)cc1 6.32%
CC1=C(C(=O)OC2CCCC2)C(c2ccccc2Cl)CC(=O)N1 (configuration not stated) -21.3%
Cn1nccc1C(=O)NCc1ccc2c(c1)CCN2C(=O)c1ccccc1 -34%
CC(C)(C)OC(=O)N1CCC(c2c(C(=O)NC3CCCCC3)cnn2-c2cccc(Cl)c2)CC1 -23.6%
Cc1c(C(=O)N2CCC(C)CC2)c(S(=O)(=O)N2CCN(c3ccc(Cl)cc3)CC2)c(C)n1C -30%
CCOc1ccccc1NC(=O)Cn1nnc(C(=O)Nc2ccc(C)c(C)c2)c1N 14.6%
CC1CCCN(CCCNC(=O)CN2C(=O)CSc3ccc(S(=O)(=O)N4CCOCC4)cc32)C1 (configuration not stated) -1.11%
COc1ccc(-c2nc3sc(CCNC(=O)C(=O)Nc4c(C)cccc4C)c(C)n3n2)cc1 -4.23%
COc1ccc(CNC(=O)Cc2csc3nc(-c4ccc(C)cc4)cn23)cc1 -15.6%
Cc1ccc(Cl)cc1N1CCN(C(=O)C2CCN(Cc3nc(-c4cccc(Cl)c4)oc3C)CC2)CC1 14.7%
Cc1ccccc1C(=O)Nc1nnc(S(=O)(=O)N2CCCCCC2)s1 -13.9%
COC(=O)CC1Oc2ccccc2-n2cc(-c3ccc(Cl)cc3)nc21 (configuration not stated) -2.31%
Cc1cc(C)cc(N(CC(=O)NCc2ccccc2Cl)S(=O)(=O)c2c(C)noc2C)c1 -0.497%
CCOC(=O)c1ccc(Nc2cc(-c3ccccc3)nc(C)n2)cc1 2.6%
COc1ccc(-n2nc(C(=O)NCCc3cccc(C)c3)c3c4ccccc4n(C)c3c2=O)cc1Cl 1.19%
Cc1cccc(-c2nc(SCC(=O)Nc3ccc4c(c3)OCCO4)c(-c3ccccc3)[nH]2)c1 -22.6%
CCc1nn2c(=O)cc(COC(=O)C(c3ccccc3)c3ccccc3)nc2s1 9.21%
CCOC(=O)Cn1c(=O)n(-c2ccccc2OC)c2nc(-c3ccccc3C)nc(C(N)=O)c21 -0.0071%
O=C(COc1ccccc1)Nc1ccccc1C(=O)OCc1cc(=O)n2nc(C3CC3)sc2n1 -2.54%
CCOCCc1nn2c(=O)cc(COC(=O)C(CC)c3ccccc3)nc2s1 (configuration not stated) -10%
COc1ccc(NC(=O)CCn2cccn2)cc1OC 2.24%
Cc1nnc(N2CCN(c3ccccc3F)CC2)c2c1nnn2Cc1ccccc1 -1.63%
Cc1cccc(C(=O)Nc2ccccc2SCc2cc(=O)c3cccc(C)c3[nH]2)c1 17%
CCOc1ccc(NC(=O)CC2C(=O)N(c3cccc(C)c3)C(=O)N2Cc2cccnc2)cc1 (configuration not stated) -4.27%
CCOc1ccc(NC(=O)Cn2c(=O)n(CCC(=O)NCCc3ccccc3)c(=O)c3ccccc32)cc1 2.81%
Cc1ccc(Cn2c(=O)n(Cc3ccccc3Cl)c(=O)c3ccccc32)cc1 -11.3%
CCCCc1nn2c(=O)cc(COC(=O)c3ccc(NC(=O)C4CCCCC4)cc3)nc2s1 -11.5%
Cc1ccc2occ(-c3cc(-c4ccc(Cl)cc4)nc4c3COc3ccccc3-4)c(=O)c2c1 -4.92%
Cc1ccc(N(C)C(=O)C2CCCN(c3ncnc4c3nc3n4CCCCC3)C2)cc1C (configuration not stated) -5.97%
CCCn1cc(S(=O)(=O)c2ccc(CC)cc2)c(=O)c2ccccc21 36.9%
O=C(O)CCc1ccc(-c2ccccc2)n1CC(=O)Nc1ccccc1C(F)(F)F -18.3%
COc1ccccc1CNC(=O)CCCCn1c(=O)c2ccccc2n(CC(=O)Nc2cc(Cl)ccc2C)c1=O 7.63%
CCCCCC(O)c1cccc(OCc2ccc3ccccc3n2)c1 (configuration not stated) -1%
O=c1c2[nH]c3ccccc3c2nc(SCc2cccc(F)c2)n1-c1ccccc1 -21.2%
COc1ccc2c(c1)c1c(c(=O)n(-c3ccccc3C)c(=O)n1CC(=O)Nc1c(C)cccc1C)n2C 20.1%
Cc1ccccc1Nc1nn2c(=O)c3ccc(C(=O)N4CCCC(C)C4)cc3nc2s1 (configuration not stated) 0.842%
COc1cccc(OC)c1C(=O)Nc1ccc2c(c1)N(C(C)=O)CCC2 -21.9%
O=C(CCc1ccccc1)NC1CC(=O)N(c2ccccc2)C1 (configuration not stated) 1.77%
Cc1ccc(NC(=O)CCC(=O)N2Cc3ccccc3Oc3ncccc32)cc1 3.39%
COc1ccc(NC(=O)Cn2c(SCc3ccc(C)cc3)nc3cccnc32)c(OC)c1 14.2%
COc1ccc(-c2cnc(C)o2)cc1S(=O)(=O)Nc1ccc(C)c(N(C)C)c1 5.24%
CC(C)(C)c1ccc(C(=O)CCCN2CCC(OC(c3ccccc3)c3ccccc3)CC2)cc1 32% and -16.2%
CCOc1ccc(CNS(=O)(=O)c2cc(-c3cc(C)no3)ccc2C)cc1OC -11.5%
CCc1ccc(-n2c(=O)c3c4c(sc3n(CC(=O)NC(C)CC)c2=O)CCCC4)cc1 (configuration not stated) -6.51%
Cn1c(=O)[nH]c2cc(-c3noc(-c4ccc(F)cc4)n3)ccc21 -5.28%
CCn1c(=O)cc(SCC(=O)NCCc2ccc(OC)cc2OC)c2ccccc21 41.9%
COCCCNC(=O)CSc1nc(-c2ccccc2)[nH]c1-c1ccc(C)cc1 -18.9%
CCCn1c(=O)c2sccc2n2c(CCCC(=O)Nc3cccc(CC)c3)nnc12 -3.34%
CCc1cnc2c(c1SCC(=O)Nc1ccc(C)cc1C)c(=O)n(C)c(=O)n2C 1.09%
CN1C(=O)Cc2cc(S(=O)(=O)NCCc3ccccc3)ccc21 -6.97%
CCc1ccc(OCC(=O)N(Cc2ccc(OC)cc2)C2CCS(=O)(=O)C2)cc1 (configuration not stated) -7.78%
O=C(CCn1c(=O)c2cccn2c2cccnc21)N1CCN(c2cccc(Cl)c2)CC1 6.73%
Cc1cccc(-c2nc(SCC(=O)Nc3ccc4c(c3)OCO4)c(-c3ccccc3)[nH]2)c1 -24.2%
CCN1CCN(C(=O)c2ccc3c(c2)N(Cc2cccc(F)c2)C(=O)c2ccccc2S3)CC1 -9.5%
COCCCNC(=O)Cn1cnc2sc(C)c(S(=O)(=O)N3CCN(c4ccccc4OC)CC3)c2c1=O 1.79%
CCOC(=O)c1cc(-c2ccc(C)cc2)n(CCC(=O)Nc2ccc(OC)c(OC)c2)c1C 4.2%
COc1ccc(CCNC(=O)c2ccc3c(c2)N(Cc2ccc(Cl)cc2)CCS3)c(OC)c1 6.87%

— PubChem BioAssay AID1346428 (National Center for Advancing Translational Sciences (NCATS), 2018)
